Data as given in paper PMC10730695.
Results are given in words; binding and its absence hold for the method and conditions named. Binding seen in cells or lysates may run through a third protein. Some results given as binding are weak or reduced against the parent protein; the word gives no strength.

By UniProt entry, the sequences of proteins in these tests, tags left out. Where a name states a change or a piece, a line headed by the entry shows the natural chain unless it says otherwise. Residues count along the entry.
UniProt Q8N884: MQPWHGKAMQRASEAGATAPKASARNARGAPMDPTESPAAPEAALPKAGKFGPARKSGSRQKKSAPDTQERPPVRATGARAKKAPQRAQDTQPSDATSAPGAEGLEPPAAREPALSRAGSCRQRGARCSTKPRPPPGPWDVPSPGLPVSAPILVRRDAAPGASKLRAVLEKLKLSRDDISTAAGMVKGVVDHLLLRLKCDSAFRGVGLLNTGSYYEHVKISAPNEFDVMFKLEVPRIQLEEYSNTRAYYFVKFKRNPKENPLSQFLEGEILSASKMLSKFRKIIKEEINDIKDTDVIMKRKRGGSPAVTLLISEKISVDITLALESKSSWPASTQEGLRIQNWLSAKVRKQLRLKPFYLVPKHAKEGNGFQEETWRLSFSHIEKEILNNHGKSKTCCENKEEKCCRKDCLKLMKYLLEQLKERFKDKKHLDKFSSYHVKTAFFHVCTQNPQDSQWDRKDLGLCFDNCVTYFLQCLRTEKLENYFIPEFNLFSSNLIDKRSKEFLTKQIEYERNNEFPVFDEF
Flag-cGAS (1–160): residues 1-160 of Q8N884
Flag-cGAS (161–522): residues 161-522 of Q8N884
UniProt P16220: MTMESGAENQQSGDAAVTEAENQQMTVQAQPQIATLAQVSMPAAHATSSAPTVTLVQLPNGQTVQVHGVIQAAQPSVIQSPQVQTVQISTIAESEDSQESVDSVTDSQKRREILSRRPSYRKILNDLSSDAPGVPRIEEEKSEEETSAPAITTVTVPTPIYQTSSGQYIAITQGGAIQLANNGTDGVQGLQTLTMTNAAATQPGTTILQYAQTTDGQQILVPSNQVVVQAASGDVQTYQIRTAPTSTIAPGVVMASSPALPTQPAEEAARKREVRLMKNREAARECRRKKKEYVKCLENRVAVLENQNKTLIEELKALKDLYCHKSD

Columns and labels:
[1] = target: cGAS (cyclic GMP-AMP synthase), endogenous (human (endogenous in HBE)) (UniProt Q8N884); assay: proximity ligation; Duolink In Situ Red kit; fixed and permeabilised HBE cells, antibodies against cGAS and CREB; red signal in the nucleus
[2] = target: cGAS (cyclic GMP-AMP synthase), endogenous (human (endogenous in HBE)) (UniProt Q8N884); assay: co-IP; endogenous proteins; lysate precipitated with magnetic protein A/G beads conjugated with anti-cGAS or anti-CREB antibodies, western blot
[3] = target: Flag-tagged cGAS (cyclic GMP-AMP synthase), full length (human) (UniProt Q8N884); assay: co-IP; HEK293T cells co-transfected for 48 h; lysate precipitated with anti-Flag beads overnight, washed four times with PBST, blot with anti-HA
[4] = target: Flag-cGAS (161–522)-MBP (human) (UniProt Q8N884); assay: as above
[5] = target: Flag-cGAS (161–522) (human) (UniProt Q8N884); assay: as above
[6] = target: Flag-cGAS (1–160) (human) (UniProt Q8N884); assay: as above
[7] = target: HA-tagged CREB (cAMP response element-binding protein) (UniProt P16220); assay: co-IP; HEK293T cells co-transfected for 48 h; lysate precipitated with anti-HA beads overnight, washed four times with PBST, immunoblot

For “CREB (cAMP response element-binding protein), endogenous (from UniProt P16220 1-327)”, the binding [1] was “binds” and the binding [2] was “binds”.
In the case of “HA-tagged CREB (cAMP response element-binding protein) (from UniProt P16220 1-327)”, the binding [3] is reported as “binds”, the binding [4] is reported as “binds” and the binding [5] is reported as “binds”. The binding [6] was “no binding”.
For “Flag-tagged cGAS (cyclic GMP-AMP synthase), full length (from UniProt Q8N884 1-522)”, the binding [7] was “binds”.
